In one experiment the target is T1, mouse MCP-1 N1pE (Mus musculus, UniProt P10148).
T1 construct: host or cells: E. coli
Description: Indirect Sandwich ELISA for detection of mMCP-1 N1pE. It counts as binding. The text has this: Examples 5-10 describe the quantitative detection of recombinant and native human MCP-1/MCP-1 N1pE. In order to analyse mMCP-1 and mMCP-1 N1pE level in mouse samples, assays needed to developed for the quantification of mouse MCP-1/MCP-1 N1pE. Since the MCP-1 N1pE antibody clone 348-2C9 cross reacts with mouse MCP-1 N1pE, this antibody was used for the establishment of an indirect Sandwich ELISA for the detection of mMCP1 N1pE.
To capture mouse MCP-1, commercially available polyclonal antiserum rabbit anti mJE (Peprotech, Hamburg, Germany) as capture antibody which specifically binds mouse MCP-1 was diluted in PBS to 500 ng/ml and immobilized in polystyrene 96-well microtitre plates over 4-7 nights at 4° C. Thereafter, blocking occurred for 2 hours at room temperature with ELISA Blocker (Thermo Fisher Scientific, Waltham, USA). For preparation of the standard curve recombinant mMCP-1 was incubated with mouse Glutaminyl Cyclase (QC) in order to obtain mMCP-1 N1pE. The recombinant mMCP-1 N1pE standard peptide was serially diluted with ELISA Blocker from 1950 pg/ml down to 19.5 pg/ml and added to the wells in duplicate. Two wells filled with ELISA Blocker represent the standard curve value 0 pg/ml. […] Absorption at 450/540 nm was determined by a Tecan Sunrise plate reader.

The target in a further experiment is hMCP-1(1-38) (Homo sapiens, UniProt P13500). Description: Isothermal titration calorimetry of anti-MCP-1 N1pE antibodies. It counts as binding. The conditions noted are these: ITC, 20° C., pH 7.4. As for the experimental part:
The binding affinities of anti-MCP-1 N1pE antibodies (MCP-1 N1pE antibody 2C9 and biotinylated MCP-1 N1pE antibody 348/2C9) to the antigen hMCP-1(1-38) were determined usingVP-ITC microcalorimeter (MicroCal). Both antibody clones and the MCP-1 (1-38) peptide were dialyzed against 2 liter 150 mM NaCl, 25 mM Na2HPO4, 25 mM KH2PO4, 2 mM EDTA pH 7.4 overnight at 4° C. to ensure the same buffer conditions and avoid background heat by protonation events. Afterwards, the concentrations of the antibodies and the peptide and the respective extinction coefficient were calculated from absorbance at 280 nm. For the titration experiments, MCP-1 N1pE antibody 2C9 and MCP-1(1-38) were used at concentrations of 1.87 μM and 29.19 μM, respectively. The binding heat was recorded at 20° C. by titration of 29 injections of 10 μl of MCP-1(1-38) into the anti-MCP-1 N1pE antibody solution. The heat development of the dilution of the MCP-1(1-38) peptide was determined by titration into the dialysis buffer using the conditions and instrument setup. Afterwards, the data were analyzed by means of the MicroCal ORIGIN software. The calculated binding heat was corrected by the heat of the peptide dilution. The resulting curve was fitted by the “One Set of Sites” binding model and the stoichiometry, dissociation constant, reaction enthalpy, reaction entropy, were calculated.

Chain of hMCP-1(1-38) (P13500 24-61 limits assumed): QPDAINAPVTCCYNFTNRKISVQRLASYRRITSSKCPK
T1 sequence (P10148 24-148): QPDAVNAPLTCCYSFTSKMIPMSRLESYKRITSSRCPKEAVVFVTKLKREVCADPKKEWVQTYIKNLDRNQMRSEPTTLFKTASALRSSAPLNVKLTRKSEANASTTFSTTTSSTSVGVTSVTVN

B1: MCP-1 N1pE antibody 348/2C9: monoclonal antibody specific for N-terminal pyroglutamate modified MCP-1, hybridoma 348/2C9 (Deposit No. DSM ACC 2906) (antibody, V domains shown)
VH: EVQLQQSGPELVKPGASVKMSCKASGYTFTDYYMDWVKQSHGESFECIGRVNPYNGGTSYNQKFKGKATLTVDKSSSTAYMELNSLTSEDSAVYYCARLGSSYRWGQGTTLTVSSAKTTPPSVYPL
VL: DVVMTQTPLSLSVTIGQPASISCKSSQSLLDSAGKTYLSWLLQRPGQSPKRLIYLVSKLDSGVPDRFTGSGSGTDFTLKISRVEAEDLGVYYCWQGTHFPWTFGGGTKLEIKRADAAPTVSIFPPSS
On to B1, for which the “cross reaction with mouse MCP-1 N1pE” value with mouse MCP-1 N1pE is given as “cross reacts”. In the experiment with hMCP-1(1-38), this molecule came in with a Reaction enthalpy of -7.679 kcal/mol, a Reaction entropy of 5.01 cal/mol·K and a Stoichiometry of 1.83. In the experiment with hMCP-1(1-38) (read-out: Dissociation constant), the Kd came out at 151 nM.

(Values after patent US20110212853A1, “NOVEL DIAGNOSTIC METHOD” (PROBIODRUG AG, priority 2010, published 2011).)
